Reference: PubChem BioAssay AID1030 (National Center for Advancing Translational Sciences (NCATS), 2008)
The campaign covered roughly 220,000 compounds. About 16,000 (7.3%) were called active. The inconclusive results got no clear call from the source; some entries with a clear call stand among them for comparison. The call rests on the fitted dose curve; in most records, active means well fitted inhibition curve with a large enough effect (not every such curve was filed as active); inconclusive means small, poorly fitted or top-dose-only effect, or another doubt; inactive means no such curve, though single readings can be large or run the other way. Potencies of inconclusive entries are left out as doubtful fits.

molecular target: Aldehyde dehydrogenase 1A1 (Homo sapiens) (UniProt P00352); assay: qHTS Assay for Inhibitors of Aldehyde Dehydrogenase 1 (ALDH1A1); conditions: Purified ALDH1A1, NADH fluorescence, propionaldehyde substrate; series mostly up to 75.3 µM
Potency means the concentration at half of the fitted maximal effect; tags describe the fitted curve by direction and shape.

Sequence of UniProt P00352 (P00352 whole entry, looked up): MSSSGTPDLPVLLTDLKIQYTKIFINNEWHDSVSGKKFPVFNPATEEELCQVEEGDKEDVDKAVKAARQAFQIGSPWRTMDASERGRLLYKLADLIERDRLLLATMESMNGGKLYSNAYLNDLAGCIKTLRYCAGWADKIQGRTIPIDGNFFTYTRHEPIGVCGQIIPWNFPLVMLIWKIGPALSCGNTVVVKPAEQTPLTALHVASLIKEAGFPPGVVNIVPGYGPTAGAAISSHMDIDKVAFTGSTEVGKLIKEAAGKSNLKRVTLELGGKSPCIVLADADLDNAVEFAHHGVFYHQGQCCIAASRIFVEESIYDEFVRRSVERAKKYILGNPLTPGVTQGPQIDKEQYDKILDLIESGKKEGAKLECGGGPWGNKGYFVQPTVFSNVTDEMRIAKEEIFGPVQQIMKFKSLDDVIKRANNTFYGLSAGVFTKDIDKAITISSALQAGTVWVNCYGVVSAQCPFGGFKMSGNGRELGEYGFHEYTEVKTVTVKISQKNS

Structure (SMILES)	Potency
CCn1c(=S)sc2c(=O)n(-c3ccccc3)c(=S)[nH]c21	inconclusive [inhibitor, partial curve]
COC(=O)C1=C(C(=O)OC)C(c2ccc(OC)c(OC)c2)c2sc(=O)[nH]c2S1 (configuration not stated)	inconclusive [inhibitor, single point]
COc1ccc(-c2[nH]ncc2CN2CCCN(c3ccccc3)CC2)c(F)c1	inconclusive [inhibitor, single point]
O=C(OCC(=O)N1N=C(c2ccc(Cl)cc2)CC1c1ccco1)c1ccccc1O (configuration not stated)	inconclusive [inhibitor, partial curve]
O=c1c2sccc2nc(SCc2cc(=O)n3cc(Cl)ccc3n2)n1Cc1ccccn1	inconclusive [inhibitor, single point]
CN([C@@H](Cc1ccc(OS(=O)(=O)c2cccc3cnccc23)cc1)C(=O)N1CCN(c2ccccc2)CC1)S(=O)(=O)c1cccc2cnccc12	inactive
COCCn1c(=O)cnc2cnc(N3CCNCC3)nc21	inconclusive [inhibitor, partial curve]
Cc1ccc(C)n1-c1ccc(-c2nnco2)cc1	inconclusive [inhibitor, single point]
COc1ccccc1NS(=O)(=O)c1cc([N+](=O)[O-])ccc1N/N=C/c1c[nH]c2ccccc12	inconclusive [inhibitor, partial curve]
O=C(O)C1=CC(=C(c2ccc(O)c(C(=O)O)c2)c2ccc(O)c(C(=O)O)c2)C=CC1=O	inconclusive [inhibitor, single point]
COc1ccc(CC(=O)Nc2ccc(C(C)=O)cc2)cc1	inconclusive [inhibitor, single point]
C[C@@H]1C(c2ccc(F)cc2)=NN(c2ccc(Br)cc2)[C@H]1C(=O)N1CCOC1=O	inconclusive [inhibitor, single point]
COc1ccccc1NC(=S)Nc1cccc(F)c1	inactive
CCc1ccc(NC(=O)c2ccc(F)c(S(=O)(=O)N(CC)c3ccccc3)c2)cc1	inconclusive [inhibitor, full curve, poor fit]
COc1ccc(C/C(N)=N/OC(C)=O)cc1OC	inactive
CCCCn1c(N)c(NCC)c(=O)[nH]c1=O	inconclusive [inhibitor, single point]
COC(=O)c1cc(OC)c(OC)cc1NC(=O)C1CCCO1 (configuration not stated)	inconclusive [inhibitor, partial curve]
O=C(c1csnn1)N1CCC[C@@]2(CCN(Cc3cc(C(F)(F)F)cc(C(F)(F)F)c3)C2)C1	inconclusive [inhibitor, single point]
CCc1c(C)nc(N)n2c(SCC(=O)N3CCCc4ccccc43)nnc12	inconclusive [inhibitor, single point]
COC(=O)c1cn(NC(=O)Cc2ccccc2Br)c(=O)c2ccccc12	inconclusive [inhibitor, partial curve]
COc1ccc(CCNC(=O)COC(=O)/C=C/c2cc(OC)c(OC)c(OC)c2)cc1OC	inconclusive [inhibitor, single point]

Structure (SMILES)	Potency
CCOc1cc2c(cc1OCC)C(c1ccccc1OC)OC(=O)C2 (configuration not stated)	active: 11.2 µM
O=C(O)/C=C/C(=O)Nc1ccc(S(=O)(=O)N2CCCC2)cc1	active: 22.4 µM
CSc1nc(-c2ccc(Cl)cc2)c(C#N)c(=O)n1C	inconclusive [inhibitor, partial curve]
c1ccc(-n2nnnc2-c2cccnc2)cc1	inconclusive [inhibitor, single point]
CCOC(=O)C1=C(CN2CCSCC2)NC(=O)NC1c1cccc([N+](=O)[O-])c1 (configuration not stated)	inconclusive [inhibitor, single point]
COc1cccc(OCCOCCOc2ccc(C)cc2[N+](=O)[O-])c1	inconclusive [inhibitor, single point]
O=C(CN1CCN(S(=O)(=O)c2ccc(Br)cc2)CC1)Nc1ccccc1C(=O)c1ccccc1	inconclusive [inhibitor, full curve]
CCCCCCSC1=C(C#N)C(c2ccc(C)o2)CC(=O)N1 (configuration not stated)	active: 7.94 µM
O=C(Nc1nnc(C2CC2)s1)c1ccccn1	inconclusive [inhibitor, partial curve]
COC(=O)CC1C(=O)NCCN1C(=O)CSc1nnc(Nc2ccc(C)cc2)s1 (configuration not stated)	inactive
COc1ccccc1-c1cc2nc(C)cc(C)n2n1	inconclusive [inhibitor, single point]
CCCCN(CCCNC(=O)CN1C(=O)COc2ccccc21)c1ccccc1	active: 12.6 µM
CCOC(=O)C1(Cc2cccc(Cl)c2)CCCN(C(=O)c2ccc(C)nc2)C1 (configuration not stated)	inactive
Cc1c(C(=O)Nc2ccc(F)cc2)oc2ccc(S(=O)(=O)N3CCC4(CC3)OCCO4)cc12	inconclusive [inhibitor, partial curve]
CCOC(=O)CNC(=O)CSc1nc(-c2ccc(OC)cc2)ns1	inconclusive [inhibitor, single point]
O=C(CSc1nnc(COc2ccc(Cl)cc2)o1)N1CCOCC1	inactive
CCCCSC1=N/C(=C/c2ccsc2)C(=O)N1c1ccccc1	inconclusive [inhibitor, single point]
C/C(Cl)=C\Cn1c(Nc2ccccc2)nc2c1c(=O)n(C)c(=O)n2C	inconclusive [inhibitor, partial curve]
O=C1c2ccccc2C(Nc2ccc3c(c2)OCO3)N1Cc1ccco1 (configuration not stated)	inconclusive [inhibitor, partial curve]
CCc1nnc(NC(=O)CSc2nccn2-c2cccc(C)c2C)s1	active: 15.8 µM
CCCCN1C(=O)C2Cc3c([nH]c4ccccc34)CN2C1=S (configuration not stated)	inconclusive [inhibitor, single point]
